{"source": "the supplement of paper PMC8728848", "binders": {"B1": {"name": "GS13455A-bfa-343-25-343 (Bacteroides fragilis) (protein)", "chain": "KDEIQIVDQDTSWQMDNKYIEEDIREQLGIDPFTDLVYLGYYGNPYTQLEAINDLVNTTLVGKNELSFKVKVTKPYKEDIKVNLMKEDKLVTDFPEMAEGIPLFPSENCTFEGGVLKAGELETTVKLTLKDVEKLNNLSGYVMAIKLTMEGSHEHLAIARTRSSYFVKLNLSIRLDNIDSSNKKIEGKGFNKEISFKSDIRPDKLGSLNDGNFTANNWYTSNANNYLTIILPEKQSLKGFRLDTNTSPSGSYMLKSCRVMVETPDGNWVNHGVFDRKSMDGIAYISFKKPVECTKVRFENMMAFNGRFSVDVNEVTAFR"}}, "test_in_all_cases": "glycan array binding signal (z-score within array); higher = stronger binding", "conditions_in_all_cases": "glycan notation: IUPAC condensed, linker removed", "key": {"Neu5Ac(a2-8)Neu5Ac": {"target": "Neu5Ac(a2-8)Neu5Ac", "outline": "(§1)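 The Consortium for Functional Glycomics database supplied 3228 glycan arrays, of which those lacking an available protein sequence were dropped. The binding signal, a within-array Z-score, was averaged across arrays of the same protein sequence and across linkers. Negative scores can be read as non-binding.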"}, "[1]": {"target": "Neu5Ac(a2-8)Neu5Ac(a2-3)Gal(b1-3)GalNAc(b1-4)[Neu5Ac(a2-3)]Gal(b1-4)Glc", "outline": "as §1"}, "[2]": {"target": "Neu5Ac(a2-8)Neu5Ac(a2-3)Gal(b1-3)GalNAc(b1-4)[Neu5Ac(a2-8)Neu5Ac(a2-3)]Gal(b1-4)Glc", "outline": "as §1"}, "[3]": {"target": "Neu5Ac(a2-8)Neu5Ac(a2-3)Gal(b1-4)Glc", "outline": "as §1"}, "[4]": {"target": "Neu5Ac(a2-8)Neu5Ac(a2-3)Gal(b1-4)GlcNAc", "outline": "as §1"}, "[5]": {"target": "Neu5Ac(a2-8)Neu5Ac(a2-3)[Gal(b1-3)GalNAc(b1-4)]Gal(b1-4)Glc", "outline": "as §1"}, "[6]": {"target": "Neu5Ac(a2-8)Neu5Ac(a2-3)[GalNAc(b1-4)]Gal(b1-4)Glc", "outline": "as §1"}, "[7]": {"target": "Neu5Ac(a2-8)Neu5Ac(a2-8)Neu5Ac", "outline": "as §1"}, "[8]": {"target": "Neu5Ac(a2-8)Neu5Ac(a2-8)Neu5Ac(a2-3)Gal(b1-4)Glc", "outline": "as §1"}, "[9]": {"target": "Neu5Ac(a2-8)Neu5Ac(a2-8)Neu5Ac(a2-3)[Gal(b1-3)GalNAc(b1-4)]Gal(b1-4)Glc", "outline": "as §1"}, "[10]": {"target": "Neu5Ac(a2-8)Neu5Ac(a2-8)Neu5Ac(a2-3)[GalNAc(b1-4)]Gal(b1-4)Glc", "outline": "as §1"}, "[11]": {"target": "Neu5Ac(a2-8)Neu5Ac(a2-8)Neu5Ac(a2-8)Neu5Ac(a2-3)[GalNAc(b1-4)]Gal(b1-4)Glc", "outline": "as §1"}, "[12]": {"target": "Neu5Ac(a2-8)Neu5Gc(a2-3)Gal(b1-4)GlcNAc", "outline": "as §1"}, "[13]": {"target": "Neu5Ac(b2-6)Gal(b1-4)GlcNAc", "outline": "as §1"}, "Neu5Ac(b2-6)GalNAc": {"target": "Neu5Ac(b2-6)GalNAc", "outline": "as §1"}, "[14]": {"target": "Neu5Ac9Ac(a2-3)Gal(b1-3)GlcNAc", "outline": "as §1"}, "[15]": {"target": "Neu5Ac9Ac(a2-3)Gal(b1-4)GlcNAc", "outline": "as §1"}, "[16]": {"target": "Neu5Ac9Ac(a2-6)Gal(b1-4)GlcNAc", "outline": "as §1"}, "[17]": {"target": "Neu5Gc(a2-3)Gal(b1-3)GlcNAc", "outline": "as §1"}, "[18]": {"target": "Neu5Gc(a2-3)Gal(b1-3)[Fuc(a1-4)]GlcNAc", "outline": "as §1"}, "Neu5Gc(a2-3)Gal(b1-4)Glc": {"target": "Neu5Gc(a2-3)Gal(b1-4)Glc", "outline": "as §1"}, "[19]": {"target": "Neu5Gc(a2-3)Gal(b1-4)GlcNAc", "outline": "as §1"}, "[20]": {"target": "Neu5Gc(a2-3)Gal(b1-4)GlcNAc(b1-3)Gal(b1-4)GlcNAc(b1-2)Man(a1-3)[Neu5Gc(a2-3)Gal(b1-4)GlcNAc(b1-3)Gal(b1-4)GlcNAc(b1-2)Man(a1-6)]Man(b1-4)GlcNAc(b1-4)GlcNAc", "outline": "as §1"}, "[21]": {"target": "Neu5Gc(a2-3)Gal(b1-4)[Fuc(a1-3)]GlcNAc", "outline": "as §1"}, "[22]": {"target": "Neu5Gc(a2-6)Gal(b1-4)GlcNAc", "outline": "as §1"}, "Neu5Gc(a2-6)GalNAc": {"target": "Neu5Gc(a2-6)GalNAc", "outline": "as §1"}, "[23]": {"target": "Neu5Gc(a2-8)Neu5Ac(a2-3)Gal(b1-4)GlcNAc", "outline": "as §1"}, "[24]": {"target": "Neu5Gc(a2-8)Neu5Gc(a2-3)Gal(b1-4)GlcNAc", "outline": "as §1"}, "[25]": {"target": "Neu5Gc(a2-8)Neu5Gc(a2-3)Gal(b1-4)GlcNAc(b1-3)Gal(b1-4)GlcNAc", "outline": "as §1"}, "[26]": {"target": "Neu5Gc(a2-8)Neu5Gc(a2-6)Gal(b1-4)GlcNAc", "outline": "as §1"}, "[27]": {"target": "Neu5Gc(b2-6)Gal(b1-4)GlcNAc", "outline": "as §1"}}, "note": "This is one part of the list.", "data": [{"binder": "B1", "values": [{"measurement": "glycan array binding signal (z-score)", "setting": "Neu5Ac(a2-8)Neu5Ac", "value": 0.26}, {"measurement": "glycan array binding signal (z-score)", "setting": "[1]", "value": -0.06}, {"measurement": "glycan array binding signal (z-score)", "setting": "[2]", "value": 0.078}, {"measurement": "glycan array binding signal (z-score)", "setting": "[3]", "value": -0.628}, {"measurement": "glycan array binding signal (z-score)", "setting": "[4]", "value": 0.185}, {"measurement": "glycan array binding signal (z-score)", "setting": "[5]", "value": 0.853}, {"measurement": "glycan array binding signal (z-score)", "setting": "[6]", "value": 1.28}, {"measurement": "glycan array binding signal (z-score)", "setting": "[7]", "value": 0.381}, {"measurement": "glycan array binding signal (z-score)", "setting": "[8]", "value": -0.302}, {"measurement": "glycan array binding signal (z-score)", "setting": "[9]", "value": -0.113}, {"measurement": "glycan array binding signal (z-score)", "setting": "[10]", "value": 0.04}, {"measurement": "glycan array binding signal (z-score)", "setting": "[11]", "value": -0.191}, {"measurement": "glycan array binding signal (z-score)", "setting": "[12]", "value": -0.418}, {"measurement": "glycan array binding signal (z-score)", "setting": "[13]", "value": -0.1}, {"measurement": "glycan array binding signal (z-score)", "setting": "Neu5Ac(b2-6)GalNAc", "value": -0.449}, {"measurement": "glycan array binding signal (z-score)", "setting": "[14]", "value": 0.012}, {"measurement": "glycan array binding signal (z-score)", "setting": "[15]", "value": -0.504}, {"measurement": "glycan array binding signal (z-score)", "setting": "[16]", "value": 0.139}, {"measurement": "glycan array binding signal (z-score)", "setting": "[17]", "value": -0.514}, {"measurement": "glycan array binding signal (z-score)", "setting": "[18]", "value": 0.473}, {"measurement": "glycan array binding signal (z-score)", "setting": "Neu5Gc(a2-3)Gal(b1-4)Glc", "value": -0.775}, {"measurement": "glycan array binding signal (z-score)", "setting": "[19]", "value": -0.186}, {"measurement": "glycan array binding signal (z-score)", "setting": "[20]", "value": 0.694}, {"measurement": "glycan array binding signal (z-score)", "setting": "[21]", "value": -0.324}, {"measurement": "glycan array binding signal (z-score)", "setting": "[22]", "value": -0.207}, {"measurement": "glycan array binding signal (z-score)", "setting": "Neu5Gc(a2-6)GalNAc", "value": -0.577}, {"measurement": "glycan array binding signal (z-score)", "setting": "[23]", "value": -0.522}, {"measurement": "glycan array binding signal (z-score)", "setting": "[24]", "value": 0.527}, {"measurement": "glycan array binding signal (z-score)", "setting": "[25]", "value": -0.184}, {"measurement": "glycan array binding signal (z-score)", "setting": "[26]", "value": -0.53}, {"measurement": "glycan array binding signal (z-score)", "setting": "[27]", "value": 0.902}]}]}
